Data reported in PubChem BioAssay AID463173 (ICCB-Longwood Screening Facility, Harvard Medical School, 2010).
In all, about 52,000 compounds went through this assay and about 4,300 (8.3%) were called active. Rule as the data show it: active = survival mostly below about 52% (no sharp cut-off); inactive = mostly above about 56%. The list shows a part of the results.

system: DeltatarO mutant; assay: S. aureus survival, RN4220 and DeltatarO strains – OD600, teichoic acid synthesis inhibitors, primary screen (AID 463173); settings: S. aureus RN4220 wild type/DeltatarO growth, OD600, 18 h, stronger effect = lower value, screened at 18.75 µg/mL (by protocol)

SMILES	survival
Cc1ccc(CNC(=O)CCCc2nnc3n(C)c(=O)c4sccc4n23)cc1	inactive: 82%
O=C(NCCc1ccc(Cl)cc1)c1cc(-c2ccc(Cl)cc2)n[nH]1	inactive: 68%
Cc1ccc(NC(=O)C(=O)NCC(c2ccc3c(c2)OCO3)N2CCOCC2)cc1C (configuration not stated)	inactive: 73%
CCC(C)NC(=O)c1ccc2nc(CCc3ccccc3)oc2c1 (configuration not stated)	inactive: 72%
CC(C)CC(=O)Nc1ccccc1OCc1cc(=O)n2ccccc2n1	inactive: 89%
CC(=O)N1CCc2c(sc3c2c(=O)n(-c2cc(Cl)ccc2C)c(=O)n3Cc2ccccc2F)C1	inactive: 86%
CC1(C)CC(=O)c2c(oc3c(Cl)cc(NS(=O)(=O)c4ccc(Br)cc4)cc23)C1	inactive: 63%
Cc1ccc(C)n1/N=C1\NC(=O)CS1	inactive: 105%
COc1ccc(C(=O)COC(=O)CCCC(=O)Nc2cc(C(F)(F)F)ccc2Cl)cc1	inactive: 53%
COC(=O)c1cc(Cl)ccc1NC(=O)CSc1ncc(S(=O)(=O)c2ccc(Br)cc2)c(=O)[nH]1	inactive: 69%
O=C(Nc1ccc(Br)cc1F)N1CCC(CN2CCc3ccccc3C2)CC1	inactive: 79%
N#C/C(=C/c1ccc(-c2ccc(Cl)c(C(=O)O)c2)o1)C(=O)NC1CCCC1	inactive: 96%
CCc1c(C)nc2c(C)cccc2c1SCCC#N	inactive: 93%
CCOc1ccccc1Nc1sc(C(=O)c2ccccc2)c(N)c1S(=O)(=O)c1ccc(C)cc1	inactive: 92%
COc1ccc(OC)c(NC(=O)c2cn(CC(C)C)c(=O)c3cc(OC)c(OC)cc23)c1	active: 50%
Cc1ccc(CCNC(=O)c2cc3c(-c4ccccc4F)nn(C)c3s2)cc1	inactive: 52%
O=C(NCc1ccccc1F)C(=O)NCC(c1ccco1)S(=O)(=O)c1cccs1 (configuration not stated)	active: 25%
O=C(CSc1nc(-c2ccccc2)nc2c1Cc1ccccc1O2)N1CCCCC1	inactive: 58%
CC1=C(C(=O)Nc2ccccc2)C(c2cccc(Cl)c2)n2nc(SCC(=O)c3ccc(C)cc3)nc2N1 (configuration not stated)	active: 52%

SMILES	survival
Cc1ccc(Cn2c(=O)n(CCCCC(=O)NCc3ccccc3Cl)c(=O)c3ccccc32)cc1	inactive: 102%
O=c1[nH]c2ccc(NCc3ccc(-c4ccccc4)o3)cc2[nH]1	inactive: 86%
Cc1cccc(OCC(=O)Nc2ccccc2C(=O)OCc2cc(=O)n3nc(C)sc3n2)c1	inactive: 71%
COc1ccc2c(CNC3CCCCCC3)c(C(=O)O)n(Cc3ccccc3F)c2c1	inactive: 95%
CCOC(=O)c1c(S(=O)(=O)N2CCC(C(=O)Nc3ncccc3C)CC2)c(C)n(C)c1C	inactive: 89%
CCOC(=O)c1cc(-c2ccc(OC)cc2)n(CCC(=O)NC2CCCCC2)c1C	inactive: 115%
Cc1c(C(=O)OC2CCCCC2)[nH]c2c1C(=O)CC(c1ccc(C(C)(C)C)cc1)C2 (configuration not stated)	inactive: 97%
CCOC(=O)c1cnc2ccc(C)cc2c1Nc1ccc(N(CC)CC)cc1	active: -5%
CCC(=O)N1CCc2cc(Br)cc(S(=O)(=O)CCC(=O)N3CCN(c4cc(C)ccc4C)CC3)c21	inactive: 69%
CCCc1nnc(NC(=O)c2cc(=O)c3cc(C)c(C)cc3o2)s1	active: 35%
CCOc1ccc(-c2oc3ccc(C)cc3c(=O)c2O)cc1	inactive: 91%
COCCCNC(=O)c1ccc2c(c1)nc(C)n2-c1cccc(C)c1	inactive: 69%
CCN(c1ccccc1)S(=O)(=O)c1ccc(NC(=O)c2cc(=O)c3ccccc3o2)cc1	inactive: 63%
O=c1c2oc3ccccc3c2n(Cc2ccc(F)cc2)c(=O)n1Cc1ccco1	inactive: 71%
CCCCn1c(=NC(=O)c2c(-c3c(F)cccc3Cl)noc2C)c(C(=O)OCC)cc2c(=O)n3ccccc3nc21	inactive: 170%
COc1ccc(CNS(=O)(=O)c2cc(Br)cc3c2N(C(C)=O)C(C)C3)cc1 (configuration not stated)	inactive: 131%
O=C(NCc1cccc(F)c1)c1ccc(CN2CC(=O)N3CCCCC3C2=O)cc1 (configuration not stated)	inactive: 108%
CCOc1cccc(NC(=O)c2sc3nc(-c4ccc(F)cc4)ccc3c2N)c1	inactive: 73%
CCSc1ncc(Cl)c(C(=O)N(Cc2ccccc2)c2ccc(OC)cc2)n1	inactive: 100%

SMILES	survival
COc1cc(CNCCSc2nnnn2C)ccc1OCc1ccc(C)cc1	inactive: 59%
O=c1c(=O)n(-c2ccccc2)ccn1Cc1c(F)cccc1Cl	active: 44%
O=C(COCc1cc(-c2cccs2)on1)N1CCN(c2ccc(F)cc2)CC1	inactive: 98%
Cc1nc2cccnc2n1C1CCN(C(=O)Nc2ccccc2)CC1	inactive: 78%
COc1cc(C(=O)Nc2ccc(-n3c(C)nc4ccccc4c3=O)cc2)cc(OC)c1OC	inactive: 57%
Cc1cc(C)cc(N2CC(c3nnc(NC(=O)c4ccco4)s3)CC2=O)c1 (configuration not stated)	inactive: 70%
C#CCn1c(O)c(N=NC(=O)c2cc(OC)c(OC)c(OC)c2)c2ccccc21	inactive: 62%
O=S(=O)(NCc1ccc(Cl)cc1)c1ccc2[nH]c3c(c2c1)CCCC3	inactive: 91%
CCOc1ccc(-c2cc3c(=O)n(Cc4nc(-c5ccccc5OCC)oc4C)ccn3n2)cc1Cl	inactive: 190%
Cc1ccc(Cn2c(C)c(CNCC(C)c3ccccc3)c(C(=O)O)c2C)cc1 (configuration not stated)	inactive: 83%
Cc1ccc(NC(=O)c2ccc(Cl)cc2Cl)c(C(=O)c2ccccc2)c1	active: -1%
CNC(=S)N(CCO)Cc1cc2cc3c(cc2[nH]c1=O)OCCO3	inactive: 79%
CC(C)OC(=O)CSc1nnc(-c2ccc(O)cc2)n1-c1ccccc1	inactive: 65%
COCCCNC(=O)C1CCC(Cn2c(=O)c3sccc3n(C)c2=O)CC1 (configuration not stated)	inactive: 113%
CCC(CC)C(=O)Nc1ccccc1SCc1cc(=O)c2cccc(C)c2[nH]1	inactive: 84%
COc1ccc2c3c(cccc13)OCC2=O	inactive: 92%
Cc1ccc(NC(=O)CN2CCN(c3ccccc3F)CC2)cc1F	inactive: 102%
COc1ccccc1C(=O)NCC(C)(C)CN=C1NS(=O)(=O)c2ccccc21	inactive: 78%
CS(=O)(=O)c1ccc(-c2nn[nH]n2)cc1	inactive: 102%
